Results on 115 sequences are retold here after the BET-seq Pho4 binding data (Le et al. 2018).

The other results are listed elsewhere or left out. The energies were worked out here from pooled read counts, against the library average; single values are noisy.

The assay has as its target T1, Pho4 (S. cerevisiae) (UniProt P07270).
T1 sequence: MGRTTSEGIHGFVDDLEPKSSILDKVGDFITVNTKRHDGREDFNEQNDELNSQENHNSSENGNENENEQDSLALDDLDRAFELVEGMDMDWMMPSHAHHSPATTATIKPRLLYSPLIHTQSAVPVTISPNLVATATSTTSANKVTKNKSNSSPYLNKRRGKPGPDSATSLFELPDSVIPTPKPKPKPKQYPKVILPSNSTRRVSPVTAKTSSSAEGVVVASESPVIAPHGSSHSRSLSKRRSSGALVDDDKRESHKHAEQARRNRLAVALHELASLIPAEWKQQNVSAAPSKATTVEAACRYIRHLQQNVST
As to the kind of experiment: relative binding free energy (BET-seq); higher = weaker binding. To be noted: reference: library average.
Turning to GTGTTCACGTGCTCTT, the “relative binding free energy” value came to 0.31 kcal/mol.

In the case of TGGAACACGTGGGAAG, the “relative binding free energy” value was -0.07 kcal/mol.

Consider AGTGTCACGTGGGATG, for which the “relative binding free energy” value is 0.01 kcal/mol. As for TGTTGCACGTGGGCAC, the “relative binding free energy” value is -0.18 kcal/mol. The same measure for TGGTACACGTGGAGCG: 0.09 kcal/mol. As for ATAATCACGTGTATTT, the “relative binding free energy” value was found to be 0.12 kcal/mol. The same measure for GGGCTCACGTGGTTGC: 0.34 kcal/mol; for AGGGTCACGTGTAGAT: 0.28 kcal/mol; for TTATACACGTGGTTAA: -0.04 kcal/mol. With GAGCGCACGTGATGTG, the “relative binding free energy” value is -0.05 kcal/mol. The same measure for ATTGACACGTGGGGGC: -0.19 kcal/mol; for GGTAACACGTGTTCTT: 0.12 kcal/mol; for TAATCCACGTGGGGTT: -0.04 kcal/mol. As to AGGTGCACGTGGCAAG, the “relative binding free energy” value is -0.14 kcal/mol.

In the case of AAAGGCACGTGGTATA, the “relative binding free energy” value is -0.09 kcal/mol. On to AGGATCACGTGTTAGT, for which the “relative binding free energy” value is 0.17 kcal/mol. For the sequence GTTTTCACGTGGCTGT, the “relative binding free energy” value was 0.41 kcal/mol.

As to TTAAACACGTGTCTTT, the “relative binding free energy” value was 0.11 kcal/mol. For the sequence AGTGACACGTGGACGG, the “relative binding free energy” value is 0.04 kcal/mol. Regarding TGTAGCACGTGGTCCT, the “relative binding free energy” value was -0.15 kcal/mol. For TGGTACACGTGTCCGG, the “relative binding free energy” value was 0.15 kcal/mol. TAGGACACGTGGGAGA: the “relative binding free energy” value is -0.02 kcal/mol.

In the case of GGCTGCACGTGTGAAG, the “relative binding free energy” value is 0.35 kcal/mol. The same measure for TGCGACACGTGGAGCG: 0.17 kcal/mol. The same measure for TTATTCACGTGGATTA: 0.27 kcal/mol; for GGGCGCACGTGGCGTG: -0.22 kcal/mol; for TGCTTCACGTGTTCGG: 0.22 kcal/mol.

Regarding AGGGGCACGTGAAGGT, the “relative binding free energy” value was determined as 0.12 kcal/mol. On to ACGAGCACGTGGGGTA, for which the “relative binding free energy” value was -0.24 kcal/mol. Take TTCTGCACGTGGTTCT: the “relative binding free energy” value was -0.02 kcal/mol. The same measure for GTATGCACGTGCTTGG: -0.07 kcal/mol; for ATGGACACGTGTGATG: 0.13 kcal/mol.

As for TGGTACACGTGTCTTG, the “relative binding free energy” value turned out to be 0.11 kcal/mol.

As to GGTTTCACGTGTAAAT, the “relative binding free energy” value amounted to 0.32 kcal/mol.

TTCTTCACGTGGAATG: the “relative binding free energy” value was determined as 0.26 kcal/mol. Regarding TGTGGCACGTGTGGTC, the “relative binding free energy” value is -0.04 kcal/mol.

ATAGGCACGTGCAGTG: the “relative binding free energy” value is -0.07 kcal/mol. The same measure for TCGGGCACGTGAGTGA: 0.17 kcal/mol.

As for CTGGCCACGTGTGTTG, the “relative binding free energy” value is -0.17 kcal/mol.

Take TGTTCCACGTGTAGTT: the “relative binding free energy” value amounted to 0.25 kcal/mol. With TTGTACACGTGTAGGG, the “relative binding free energy” value was determined as 0.16 kcal/mol. The same measure for TTTCACACGTGATTGT: 0.06 kcal/mol; for GTTGACACGTGTACGG: 0.07 kcal/mol; for ATGCACACGTGCGGTT: 0.03 kcal/mol. Consider TTAGGCACGTGAATTC, for which the “relative binding free energy” value came out at 0.22 kcal/mol. The same measure for AGGGTCACGTGTTATT: 0.08 kcal/mol. The same measure for TTGAGCACGTGAGGGA: 0.21 kcal/mol; for GTGTGCACGTGTAGTT: 0.03 kcal/mol; for GTGATCACGTGTGGAA: 0.11 kcal/mol. The same measure for ACGTGCACGTGCAGGT: -0.13 kcal/mol; for CAAGTCACGTGCGTGT: 0.06 kcal/mol; for GAAGGCACGTGCATTG: -0.01 kcal/mol. As to TCGTACACGTGATATT, the “relative binding free energy” value came to 0.26 kcal/mol.

In the case of GTGCTCACGTGGGGGG, the “relative binding free energy” value came to 0.11 kcal/mol. The same measure for GTGATCACGTGTGATC: 0.35 kcal/mol; for GGTGTCACGTGGATAA: 0.2 kcal/mol. As for GGAGACACGTGGCGGG, the “relative binding free energy” value was -0.09 kcal/mol. With TGTTTCACGTGGTTCT, the “relative binding free energy” value came out at 0.33 kcal/mol. Take AGTTGCACGTGAGTCT: the “relative binding free energy” value turned out to be 0.15 kcal/mol. The same measure for TGGTACACGTGCGTGC: -0.05 kcal/mol; for TATGGCACGTGATACG: 0.02 kcal/mol; for TTTTACACGTGCGTTG: 0.11 kcal/mol. The same measure for TTGGCCACGTGATTAT: 0.18 kcal/mol. The same measure for TCAGTCACGTGTGTAG: 0.07 kcal/mol; for GTCATCACGTGTGAGT: 0.23 kcal/mol. GGAGGCACGTGCTTGT: the “relative binding free energy” value was -0.18 kcal/mol. The same measure for TATCACACGTGTTGTG: 0.08 kcal/mol; for AAGTGCACGTGCTATG: -0.08 kcal/mol; for GCTGGCACGTGGGGTG: -0.27 kcal/mol. The same measure for CGTATCACGTGATATT: 0.39 kcal/mol; for TGCTGCACGTGCGTTA: -0.07 kcal/mol; for TATTACACGTGATGGT: 0.18 kcal/mol.

In the case of TTAGGCACGTGTACGG, the “relative binding free energy” value was -0.03 kcal/mol. For GAGTTCACGTGCGGAT, the “relative binding free energy” value was determined as 0.35 kcal/mol.

Consider GGTATCACGTGGCTGG, for which the “relative binding free energy” value is 0.08 kcal/mol.

In the case of TTTAACACGTGGTGAG, the “relative binding free energy” value was -0.01 kcal/mol.

Take AGTAACACGTGTGGAT: the “relative binding free energy” value turned out to be 0.09 kcal/mol. In the case of ATTGGCACGTGACGGG, the “relative binding free energy” value stood at 0.01 kcal/mol. For the sequence ATGGACACGTGCTTGG, the “relative binding free energy” value stood at 0.01 kcal/mol. The same measure for TTGTGCACGTGCGTGA: -0.11 kcal/mol; for TTGCTCACGTGAAATT: 0.42 kcal/mol; for ACATGCACGTGGGGTG: -0.35 kcal/mol. With TGGCGCACGTGGATGT, the “relative binding free energy” value was -0.14 kcal/mol. The same measure for CTTTCCACGTGTGAGT: 0.21 kcal/mol. The same measure for TAAATCACGTGAGGTA: 0.33 kcal/mol; for GTTTTCACGTGTGTCA: 0.16 kcal/mol.

As to TGGTACACGTGGGTTT, the “relative binding free energy” value was determined as 0.02 kcal/mol. For GTCGACACGTGGGGAG, the “relative binding free energy” value is -0.02 kcal/mol. The same measure for TATTTCACGTGCTTCG: 0.35 kcal/mol; for TTGATCACGTGGACGT: 0.19 kcal/mol; for TGGTCCACGTGCGGGT: 0.08 kcal/mol. In the case of CATAACACGTGGGGTT, the “relative binding free energy” value is -0.22 kcal/mol. On to GTTATCACGTGCGGGG, for which the “relative binding free energy” value amounted to 0.21 kcal/mol. The same measure for TAGGTCACGTGAGGAA: 0.38 kcal/mol.

AATTACACGTGTAAGG: the “relative binding free energy” value was found to be 0.25 kcal/mol.

With AGTTACACGTGAGAAG, the “relative binding free energy” value turned out to be 0.22 kcal/mol.

In the case of GGCGCCACGTGTGGGA, the “relative binding free energy” value is -0.09 kcal/mol.

As for CTGATCACGTGGGGAG, the “relative binding free energy” value was 0.03 kcal/mol. As for AGTCACACGTGCGGTT, the “relative binding free energy” value came out at 0.03 kcal/mol. The same measure for TAAATCACGTGGGTTG: -0.09 kcal/mol; for GGTGGCACGTGTGTGG: 0.01 kcal/mol; for TGGTACACGTGGTGTT: 0.09 kcal/mol. Turning to TGGCTCACGTGGTAAA, the “relative binding free energy” value is 0.32 kcal/mol. The same measure for TTAGCCACGTGTGGGA: -0.04 kcal/mol; for TGCATCACGTGGGCGT: 0 kcal/mol; for GATGACACGTGTTTTT: 0.16 kcal/mol. As for TGCGCCACGTGCGGGT, the “relative binding free energy” value is -0.07 kcal/mol. The same measure for ATGTGCACGTGGGCCT: -0.29 kcal/mol; for ATGAGCACGTGGGTGC: -0.25 kcal/mol; for ATTTTCACGTGTTAAG: 0.39 kcal/mol. The same measure for TATGACACGTGCGAGG: -0.03 kcal/mol. In the case of AAGGGCACGTGGCTGG, the “relative binding free energy” value is -0.08 kcal/mol.

For the sequence AGTTACACGTGAGAGG, the “relative binding free energy” value came out at 0.23 kcal/mol. The same measure for TGAATCACGTGAGTGG: 0.29 kcal/mol. Turning to TAGGGCACGTGTGATG, the “relative binding free energy” value is -0.08 kcal/mol.
